Test results published in the supplement of paper PMC10369915.
The other results are listed elsewhere or left out. Cut-off read from the data, not from the text of the source: active = 3.2 or more and inactive = the rest. Most of these values are background signal.

B1: ALB_Y394_D389H (peptide)
chain: HPHECYAKVFD
B2: ALB_Y343_N342K (peptide)
chain: DVCKKYAEAKD
B3: ALB_Y377_E382K (peptide)
chain: RLAKTYETTLK
B4: ALDH3B2_Y365_H361R (peptide)
chain: IRYPPYTDWNQ
B5: ALB_Y174_Y174F (peptide)
chain: RHPYFFAPELL
B6: ALDOA_Y204_E207K (peptide)
chain: LKRCQYVTKKV
B7: ALB_Y394_D399N (peptide)
chain: DPHECYAKVFN
B8: ALB_Y343_D338V (peptide)
chain: VVCKNYAEAKD
B9: ALDH5A1_Y175_H180Y (peptide)
chain: EARRVYGDIIY
B10: ALDH1A3_Y492_A493P (peptide)
chain: RELGEYPLAEY
B11: ALDH2_Y497_E496K (peptide)
chain: RELGKYGLQAY
B12: ALDH3B2_Y365_H361R_YF (peptide)
chain: IRFPPYTDWNQ
B13: ALDH3A1_Y272_E270A (peptide)
chain: SLKAFYGEDAK
B14: ALDH3B2_Y362_H361R_YF (peptide)
chain: LKEIRYPPFTD
B15: ALDH2_Y497_E496K_YF (peptide)
chain: RELGKYGLQAF
B16: ALB_Y521_D518N (peptide)
chain: EVNETYVPKEF
B17: ALAS2_Y199_R204Q (peptide)
chain: WCSNDYLGMSQ
B18: ALDH1A1_Y119_YF (peptide)
chain: LFSNAYLNDLA
B19: ALB_Y343_D338G (peptide)
chain: GVCKNYAEAKD
B20: ALDH1A1_Y119_N121S_YF (peptide)
chain: LFSNAYLSDLA
B21: ALDOA_Y204 (peptide)
chain: LKRCQYVTEKV
B22: ALAS2_Y199 (peptide)
chain: WCSNDYLGMSR
B23: ALDH2_Y332_E337V (peptide)
chain: VQEDIYDEFVV
B24: ALDH3B2_Y362_YF (peptide)
chain: LKEIHYPPFTD
B25: ALDOA_Y138 (peptide)
chain: ERCAQYKKDGA
B26: ALDH5A1_Y175 (peptide)
chain: EARRVYGDIIH
B27: ALB_Y287_Q292R (peptide)
chain: ADLAKYICENR
B28: ALCAM_Y298 (peptide)
chain: RSSNTYTLTDV
B29: ALDH3B2_Y365 (peptide)
chain: IHYPPYTDWNQ
B30: ALDH1A3_Y492_A493P_YF (peptide)
chain: RELGEYPLAEF
B31: ALDH3B2_Y362 (peptide)
chain: LKEIHYPPYTD
B32: ALDOA_Y343 (peptide)
chain: ACQGKYTPSGQ
B33: ALDH1A3_Y492 (peptide)
chain: RELGEYALAEY
B34: ALDH5A1_Y175_H180Y_YF (peptide)
chain: EARRVYGDIIF
B35: ALDH3A1_Y305_G309E (peptide)
chain: GQKVAYGGTED
B36: ALDH3B2_Y365_YF (peptide)
chain: IHFPPYTDWNQ
B37: ALDH5A1_Y175_G176R (peptide)
chain: EARRVYRDIIH

target: SHP2 C-SH2 domain E139D; assay: enrichment score (SH2-bound / input frequency) (ratio); bacterial display of known human phosphotyrosine sites (pTyr-Var adds point mutants) read by sequencing; higher = stronger binding; tyrosines were phosphorylated by kinases first; settings: peptide library: pTyr-Var
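Note: displayed peptides selected on beads carrying the immobilized SH2 domain, with library peptides lacking any tyrosine serving as negative controls.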

Enrichment score, inactive:
B1 1.34
B2 0.539
B3 0.6
B4 1.01
B5 1.49
B6 0.455
B7 0.594
B8 0.83
B9 0.86
B10 0.68
B11 0.539
B12 1.42
B13 0.734
B14 1.65
B15 0.741
B16 0.517
B17 0.973
B18 1.43
B19 0.562
B20 1.2
B21 0.606
B22 0.984
B23 0.535
B24 1.02
B25 0.797
B26 0.573
B27 0.941
B28 0.736
B29 1.26
B30 0.557
B31 0.829
B32 0.837
B33 0.72
B34 0.871
B35 0.498
B36 1.19
B37 0.926

target: SHP2 C-SH2 domain wild-type; assay: as above; settings: peptide library: pTyr-Var

Enrichment score, inactive:
B1 1.93
B2 0.682
B3 0.77
B4 0.749
B5 1.47
B6 0.365
B7 1.03
B8 0.75
B9 0.759
B10 0.776
B11 0.896
B12 0.987
B13 0.577
B14 1.01
B15 0.823
B16 0.465
B17 1.08
B18 1.17
B19 0.443
B20 0.859
B21 0.829
B22 1.06
B23 0.689
B24 0.975
B25 0.721
B26 0.723
B27 0.878
B28 0.81
B29 0.92
B30 1
B31 0.703
B32 0.689
B33 0.526
B34 1.08
B35 0.697
B36 1.05
B37 0.68

target: SHP2 N-SH2 domain L43F; assay: as above; settings: peptide library: pTyr-Var

Enrichment score, inactive:
B1 2.02
B2 0.695
B3 0.696
B4 0.921
B5 1.64
B6 0.492
B7 0.63
B8 0.635
B9 0.748
B10 0.582
B11 0.565
B12 1.06
B13 0.893
B14 1.26
B15 0.678
B16 0.588
B17 0.924
B18 1.27
B19 0.648
B20 0.803
B21 0.86
B22 1.02
B23 0.686
B24 1.04
B25 0.766
B26 0.725
B27 0.834
B28 0.989
B29 0.969
B30 0.498
B31 0.651
B32 0.614
B33 0.831
B34 0.849
B35 0.556
B36 1.34
B37 0.667

target: SHP2 N-SH2 domain T42A; assay: as above; settings: peptide library: pTyr-Var

Enrichment score, inactive:
B1 1.76
B2 0.493
B3 0.388
B4 0.756
B5 1.62
B6 0.519
B7 0.608
B8 0.642
B9 0.818
B10 0.796
B11 0.692
B12 1.01
B13 0.608
B14 0.974
B15 0.679
B16 0.526
B17 1.02
B18 1.51
B19 0.5
B20 0.821
B21 0.615
B22 0.977
B23 0.613
B24 0.758
B25 0.713
B26 0.625
B27 0.702
B28 1.82
B29 0.978
B30 0.647
B31 0.688
B32 0.574
B33 0.875
B34 1.13
B35 0.538
B36 1.22
B37 0.717

target: SHP2 N-SH2 domain T52S; assay: as above; settings: peptide library: pTyr-Var

Enrichment score, inactive:
B1 1.8
B2 0.55
B3 0.674
B4 0.805
B5 1.5
B6 0.375
B7 0.67
B8 0.604
B9 0.87
B10 0.597
B11 0.684
B12 1.39
B13 0.671
B14 1.2
B15 0.829
B16 0.59
B17 0.813
B18 1.25
B19 0.588
B20 1.24
B21 0.63
B22 0.885
B23 0.807
B24 0.933
B25 0.564
B26 0.899
B27 0.739
B28 1.02
B29 0.845
B30 0.623
B31 0.879
B32 0.686
B33 0.812
B34 1
B35 0.602
B36 1.33
B37 0.866

target: SHP2 N-SH2 domain wild-type; assay: as above; settings: peptide library: pTyr-Var

Enrichment score, inactive:
B1 1.56
B2 0.944
B3 0.722
B4 0.714
B5 1.61
B6 0.49
B7 0.726
B8 0.949
B9 0.807
B10 1.33
B11 0.796
B12 1.14
B13 0.806
B14 1.62
B15 0.902
B16 0.653
B17 0.886
B18 1.14
B19 0.542
B20 0.707
B21 0.695
B22 0.842
B23 0.852
B24 0.862
B25 0.676
B26 0.809
B27 1.04
B28 0.872
B29 0.911
B30 0.561
B31 0.66
B32 0.759
B33 0.819
B34 0.972
B35 0.573
B36 1.04
B37 0.726
